{"source": "PubChem BioAssay AID602332", "about": "(National Center for Advancing Translational Sciences (NCATS), 2012)", "note": "“And” between values parts separate entries of the source, which are not always exact repeats. Equal values may be shown once. Hit rate of the full screen: of about 420,000 compounds, about 75 (0.02%) were called active. The call rests on the fitted dose curve; in most records, active means well fitted activation curve with a large enough effect; inconclusive means small, poorly fitted or top-dose-only effect; inactive means no such curve, though single readings can be large or run the other way. The entries are a selection whose mix differs from that of the whole data set. Potency means the concentration at half of the fitted maximal effect.", "data": [{"experiment": "qHTS for Inducers of the Endoplasmic Reticulum Stress Response (ERSR) in Human Glioma: qHTS; further: nearly all actives have a fitted effect of over 35% in size; on activation: % of control where 0% means no effect", "settings": "U87-MG GRP78 promoter luciferase reporter, 16 h; activation: stronger effect = higher value", "from_the_text": "Primary protein unfolding takes place for many diseases, including diabetes and hypoxia, , and triggers a reaction in the cells called ER stress response (ERSR). ). ERSR is designed as a repair mechanism, but ultimately leads to cell death via apoptosis if conditions triggering protein unfolding persist (1). The molecular clue to ERSR activation is the enhancement of the expression of key molecular chaperones, including the glucose regulated protein (GRP) 78. GRP78 is the main sensor for protein folding and the main actuator of the ERSR.\nIn a collaboration between the Southern Research Institute and the NIH Chemical Genomics Center, a cell based screen was developed that reliably uses GRP78 as a sensor to identify small molecules as inducers of ERSR. In resting conditions, GRP78 binds proteins and acts as a natural repressor. Once unfolded proteins are present in the ER, GRP78 releases some of the repressors and binds to the unfolded proteins. The release of the repressors executes the ERSR program. Using a human glioma cell line in a miniaturized, luminescent format, a high-throughput screen was developed to identify actuators of the ERSR.\n(1) Soboloff, J. and S. A. Berger (2002). \"Sustained ER Ca2+ depletion suppresses protein synthesis and induces activation-enhanced cell death in mast cells.\" J Biol Chem 277(16): 13812-20.\nNIH Chemical Genomics Center [NCGC]\nNIH Molecular Libraries Probe Centers Network [MLPCN]\nAssay Submitter (PI): Maurizio Grimaldi, Southern Research Institute\nStable transfected human glioma cell line, U87-MG, are dispensed at density 1000 cells/well into Greiner white solid bottom 1536-well assay plates. Compounds are transferred via Kalypsys pin tool equipped with 1536-pin array (10nl slotted pins, V&P Scientific, San Diego, CA). The assay plates will be incubated for 16 hours and developed by adding appropriate quantities of the Promega Bright Glo reagent. The plates will be incubated at room temperature for 10 minutes prior to being transferred into a ViewLux high-throughput CCD imager (PerkinElmer), wherein end-point measurements of luminescence are acquired.", "values": [{"smiles": "COc1cc(C2CC(=O)Oc3ccc(O)cc32)cc(OC)c1OC", "note": "(centres undefined)", "Potency": "active: 50.1 µM"}, {"smiles": "COc1ccc(C(=O)Nc2ccccc2C(=O)N/N=C/c2ccc(O)c(OC)c2)cc1", "activation": "inactive: -15.2%"}, {"smiles": "COCCCn1cnc2c(c1=O)c1nc3ccccc3nc1n2-c1ccccc1", "activation": "inactive: -18.5%"}, {"smiles": "COCCn1c(C)cc(C(=O)COC(=O)c2cccc(O)c2)c1C", "activation": "inactive: -13.8%"}, {"smiles": "OCCN1CCN(CC/C=C2\\c3ccccc3Sc3ccc(C(F)(F)F)cc32)CC1", "activation": "inactive: -4.57%"}, {"smiles": "CCN(CC)S(=O)(=O)c1cc(NC(=O)Cn2ncc(Cl)c(Cl)c2=O)ccc1C", "activation": "inactive: -17.9%"}, {"smiles": "CCOC(=O)N1CCN(/[N+]([O-])=N/Oc2ccc([N+](=O)[O-])cc2[N+](=O)[O-])CC1", "activation": "inactive: -12.1% and inactive: -1.5% and inactive: -14.5%"}, {"smiles": "Cc1ccc(C(=O)n2nc(-c3cccnc3)nc2N)cc1", "activation": "inactive: -15.3%"}, {"smiles": "CC(C)(C)c1ccc(S(=O)(=O)/C=C\\C#N)cc1", "activation": "inactive: -9.78%"}, {"smiles": "Cc1noc2ncnc(Sc3c(Cl)cccc3Cl)c12", "activation": "inactive: -18.6%"}, {"smiles": "CCOC(=O)/C(=C\\c1ccc(OC(F)F)cc1)C1=Nn2c(nnc2-c2ccc(Cl)cc2)SC1", "activation": "inactive: -15.8%"}, {"smiles": "CN(C)c1ccc(Nc2nc(-c3cccnc3)cs2)cc1", "activation": "inactive: -14.1%"}, {"smiles": "O=C(Nc1ccc(NC(=O)C2CCCCC2)cn1)c1ccco1", "activation": "inactive: -16.9%"}, {"smiles": "CCOc1ccc(-c2cn3ccccc3n2)cc1", "activation": "inactive: -15.1%"}, {"smiles": "Cc1ccccc1CNc1ncnc2c1ncn2C1OC(CO)C(O)C1O", "note": "(centres undefined)", "activation": "inactive: 13.6%"}, {"smiles": "COc1ccc2c(c1)c(CC(=O)O)c(C)n2C(=O)c1ccc(Cl)cc1", "activation": "inactive: -2.82% [middle of 7 runs]"}, {"smiles": "O=C(N/C(=C\\c1ccccc1)C(=O)N1CCCCC1)c1ccco1", "activation": "inactive: -3.67%"}, {"smiles": "COc1cc(/C=C/c2cc(C(F)(F)F)[nH]c(=O)n2)cc(OC)c1OC", "activation": "inactive: -16.9%"}, {"smiles": "COc1cccc(-c2cc(=O)c3ccccc3o2)c1N", "activation": "inactive: -4.42% [middle of 4 runs]"}, {"smiles": "CCCCCCCCCCCCCCC[C@H](O)[C@H](N)CO", "activation": "inactive: -4.84% and inactive: -2.95% and inactive: -13%"}, {"smiles": "COC(=O)CNC(=O)C(Cc1ccccc1)NS(=O)(=O)c1ccc2c(c1)c(=O)n(C)c(=O)n2C", "note": "(centres undefined)", "activation": "inactive: -0.581%"}, {"smiles": "CN1CCN(CCCN2c3ccccc3Sc3ccc(C(F)(F)F)cc32)CC1", "activation": "inactive: -6.31% [middle of 9 runs]"}, {"smiles": "COc1ccc(/C=C/C(=O)Nc2ccccc2C(=O)O)cc1OC", "activation": "inactive: -7.58% and inactive: -10.3% and inactive: -11.5%"}, {"smiles": "COC1=C2C[C@H](C)C[C@H](OC)[C@H](O)[C@@H](C)/C=C(/C)[C@H](OC(N)=O)[C@@H](OC)/C=C\\C=C(\\C)C(=O)NC(=CC1=O)C2=O", "activation": "inactive: -0.197%"}, {"smiles": "Oc1ccc(/C=C/c2cc(O)cc(O)c2)cc1", "activation": "inactive: -3.38% [middle of 5 runs]"}, {"smiles": "COc1ccc(/C=C/C(=O)Nc2ccccc2C(=O)O)cc1", "activation": "inactive: -12%"}, {"smiles": "COc1ccc(OCc2cccc(C(=O)Nc3cc(C)on3)c2)cc1", "activation": "inactive: -12.7%"}, {"smiles": "COc1ccccc1/C=C/C1(C(=O)NC2CCCC2)CC(=O)N1c1ccc(F)cc1", "note": "(centres undefined)", "activation": "inactive: -17.2%"}, {"smiles": "O=C(Nc1ccccc1)c1cc([N+](=O)[O-])ccc1Cl", "activation": "inactive: 1.16% [middle of 4 runs]"}, {"smiles": "CN(C(=O)COC(=O)c1nc(Cl)c(Cl)c(Cl)c1Cl)C1CCS(=O)(=O)C1", "note": "(centres undefined)", "activation": "inactive: -14.7%"}, {"smiles": "O=C(/C=C\\Nc1cccc(F)c1)c1ccc2c(c1)OCO2", "activation": "inactive: -14.9%"}, {"smiles": "C/C(=N\\NC(=O)c1ccc(Cl)cc1)c1cccs1", "activation": "inactive: -14.6%"}, {"smiles": "COc1cccc(C(=O)Nc2nc3ccccc3[nH]2)c1", "activation": "inactive: -15.6%"}, {"smiles": "CC1C/C(=C/c2ccccn2)C(=O)/C(=C/c2ccccn2)C1", "note": "(centres undefined)", "activation": "inactive: -16.4%"}, {"smiles": "Cc1[nH]c2ccccc2c1C(O)CN1CCN(c2cccc(C(F)(F)F)c2)CC1", "note": "(centres undefined)", "activation": "inactive: -18.8%"}, {"smiles": "C=C1C(=O)O[C@@H]2[C@@H]1CC/C(C)=C\\CC[C@@]1(C)O[C@H]21", "activation": "inactive: -11.5%"}, {"smiles": "COc1cc(-c2noc(C)c2C#CC2(O)CCCCC2)cc(OC)c1OC", "activation": "inactive: -3.15%"}, {"smiles": "NC1=NN=C(c2ccc3c(c2)OCCO3)CS1", "activation": "inactive: -14.2%"}, {"smiles": "Cn1c(-c2ccccc2)cnc1SCC(=O)N1CCCCC1", "activation": "inactive: -14.7%"}, {"smiles": "COc1ccc(NC(=O)Cn2ncc(Cl)c(Cl)c2=O)cc1S(=O)(=O)N1CCOCC1", "activation": "inactive: -15.4%"}, {"smiles": "CCN(CC)CCC(c1cc(OC)c(OC)c(OC)c1)c1c(OC)cc(OC)c2c(C)cc(=O)oc12", "note": "(centres undefined)", "activation": "inactive: -4.82%"}, {"smiles": "Cc1ccccc1CS(=O)(=O)c1ncc(Cl)c(C(=O)Nc2ccc(F)cc2)n1", "activation": "inactive: -15%"}, {"smiles": "CCCCCN(CCCCC)C(=O)[C@H](CCC(=O)O)NC(=O)c1ccc(Cl)c(Cl)c1", "activation": "inactive: -3.21%"}, {"smiles": "O=C(c1ccc(Cl)cc1)N1CCCCC(Sc2nnc(-c3ccc4c(c3)OCO4)o2)C1=O", "note": "(centres undefined)", "activation": "inactive: -13.8%"}, {"smiles": "Cc1[nH]c2ccccc2c(=O)c1C(=O)/C=C/c1ccccc1", "activation": "inactive: -15.3%"}, {"smiles": "c1ccc(-c2noc(-c3cccnc3)n2)nc1", "activation": "inactive: -12.3%"}, {"smiles": "CN(C(=O)c1ccco1)c1nc2c(s1)CCCC2", "activation": "inactive: -12.2%"}, {"smiles": "COc1ccc(-c2ccoc2)cc1C1C2C=CCC(C)C2C(=O)N1Cc1ccccc1", "note": "(centres undefined)", "activation": "inactive: -4.46%"}, {"smiles": "CCc1ccc(OCC(=O)NC(NC(=S)Nc2ccc(C)cc2C)C(Cl)(Cl)Cl)cc1", "note": "(centres undefined)", "activation": "inactive: -14.7%"}, {"smiles": "Cc1cc(=O)[nH]c(-c2ccccc2)n1", "activation": "inactive: -19.2%"}, {"smiles": "CCCCCCCCCCCCCCCC(O)C(N)CO", "note": "(centres undefined)", "activation": "inactive: -1.19%"}, {"smiles": "C=CC[C@H](CC(=O)OC(C)(C)C)C(=O)OC[C@H]1CCCN1C(=O)[C@H](CC=C)CC(=O)NCCO", "activation": "inactive: -3.44%"}, {"smiles": "Cc1ccccc1CN1C(=O)c2ccccc2Sc2ccc(C(=O)O)cc21", "activation": "inactive: 3.99%"}, {"smiles": "C=CCc1ccc(OCc2ccc(C(=O)OC)o2)c(OC)c1", "activation": "inactive: -12.4%"}]}]}
